The campaign covered roughly 16,000 compounds. About 260 (1.6%) were called active. Inconclusive means that the source gave no clear call. Such entries were picked first, then a sample of the others. Calls follow the shape of the dose curve; as a rule, active = well fitted inhibition curve with a large enough effect; inconclusive = small, poorly fitted or top-dose-only effect; inactive = no such curve, though single readings can be large or run the other way. Potencies of inconclusive entries are left out as doubtful fits.
Molecular target: Rap guanine nucleotide exchange factor 4 (Homo sapiens) (UniProt Q8WZA2)
Test: Validation qHTS for antagonist of cAMP-regulated guanine nucleotide exchange factor 4 (EPAC2); also: nearly all actives have a fitted effect of over 40% in size
Conditions: EPAC2 Rap1B BODIPY-GDP exchange, fluorescence; activity, negative = inhibition: at 112 µM (top of the series)
How it was run: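 Normalized against a 6.5 mM cAMP agonist control, compounds were tested on 100 nM EPAC2 exchanging Rap1B-bound BODIPY-GDP (250 nM) for 50 uM GDP. Fluorescence drop (ex 480, em 540 nm) was tracked at room temperature over 30 min at 5-min intervals.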
Potency is read from the fitted curve at half-maximal effect; tags tell the direction and shape of the fitted curve.

Chain of UniProt Q8WZA2 (Q8WZA2 whole entry, looked up): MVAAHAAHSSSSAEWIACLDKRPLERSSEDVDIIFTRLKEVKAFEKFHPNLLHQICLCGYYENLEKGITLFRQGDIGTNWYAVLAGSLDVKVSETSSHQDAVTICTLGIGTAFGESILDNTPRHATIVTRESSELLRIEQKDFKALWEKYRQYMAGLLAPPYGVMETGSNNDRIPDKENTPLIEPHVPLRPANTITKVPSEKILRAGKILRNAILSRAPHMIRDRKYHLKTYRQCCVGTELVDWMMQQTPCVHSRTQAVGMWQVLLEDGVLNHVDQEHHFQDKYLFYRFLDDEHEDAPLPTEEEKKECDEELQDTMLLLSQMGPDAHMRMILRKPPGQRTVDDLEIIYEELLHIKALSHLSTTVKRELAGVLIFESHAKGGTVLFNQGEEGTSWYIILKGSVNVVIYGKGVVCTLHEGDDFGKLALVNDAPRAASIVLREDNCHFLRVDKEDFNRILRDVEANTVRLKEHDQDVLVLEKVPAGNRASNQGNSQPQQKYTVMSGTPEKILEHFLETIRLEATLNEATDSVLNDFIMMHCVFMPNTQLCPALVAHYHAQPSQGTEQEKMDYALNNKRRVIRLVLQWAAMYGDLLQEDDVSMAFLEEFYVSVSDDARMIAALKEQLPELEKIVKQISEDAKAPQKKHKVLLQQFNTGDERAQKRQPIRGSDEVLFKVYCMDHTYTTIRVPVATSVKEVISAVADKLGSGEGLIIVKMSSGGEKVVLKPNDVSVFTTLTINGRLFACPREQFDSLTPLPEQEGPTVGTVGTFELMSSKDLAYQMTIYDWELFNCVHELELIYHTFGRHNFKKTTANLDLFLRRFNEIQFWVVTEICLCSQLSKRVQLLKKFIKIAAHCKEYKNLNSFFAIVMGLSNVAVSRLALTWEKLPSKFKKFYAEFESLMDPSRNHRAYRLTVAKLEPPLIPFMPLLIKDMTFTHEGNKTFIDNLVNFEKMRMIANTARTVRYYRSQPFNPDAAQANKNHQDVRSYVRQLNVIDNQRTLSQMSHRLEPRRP

Structure (SMILES) | activity, negative = inhibition | Potency
CC(c1ccon1)N(C)C(=O)c1cnn(-c2ncc3c(n2)-c2ccccc2CC3)c1C1CC1 (configuration not stated) | inactive: -37% | –
C=C[C@]1(C)C[C@@H](OC(=O)CSCCN(CC)CC)[C@]2(C)[C@H](C)CC[C@]3(CCC(=O)[C@H]32)[C@@H](C)[C@@H]1O | inactive: 0.821% | –
CC(C)N(CCC(=O)c1ccc2ccccc2c1)Cc1ccccc1 | – | inconclusive [inhibitor, partial curve, poor fit]
CSc1ccc(/C=C2/C(C)=C(CC(=O)O)c3cc(F)ccc32)cc1 | – | inconclusive [inhibitor, partial curve, poor fit]
COc1cccc(C(=O)N2CCCC(c3nc(SCCN4CCOCC4)ncc3C)C2)c1 (configuration not stated) | – | inconclusive [inhibitor, full curve, poor fit]
c1ccc2c(N3CCOCC3)nc(-c3ccoc3)nc2c1 | – | inconclusive [inhibitor, partial curve, poor fit]
O=c1c(-c2cc(F)cc(F)c2)nc2cnc(N3CCNCC3)nc2n1Cc1ccc(F)cc1 | – | active: 50.1 µM
Cc1ccc(F)cc1CNC(=O)c1sc2ncnc(NCC3CCCO3)c2c1C (configuration not stated) | – | inconclusive [inhibitor, partial curve, poor fit]
O=c1c(-c2cccc(F)c2)nc2cncnc2n1Cc1ccccc1 | – | inconclusive [inhibitor, partial curve]
Cc1cccc(CNC(=O)c2cnn(-c3nccc(-c4cccs4)n3)c2C(C)C)n1 | inactive: -23.1% | –
Oc1ccc(C(O)CNCCCCCCNCC(O)c2ccc(O)c(O)c2)cc1O (configuration not stated) | – | inconclusive [inhibitor, partial curve]
O=C1CCN(CCc2ccccc2)CCN1[C@H](CO)c1ccccc1 | – | inconclusive [inhibitor, partial curve, poor fit]
Cc1cnc(-n2ncc(C(=O)NCCN3CCOCC3)c2C(C)C)nc1-c1ccc(F)cc1 | inactive: -15.9% | –
COc1c(O)cc2c(c1O)[C@@H]1O[C@H](CO)[C@@H](O)[C@H](O)[C@H]1OC2=O | – | inconclusive [inhibitor, partial curve, poor fit]
CCn1c(-c2ccccc2F)nc2cc(NC(C)=O)cc(C(=O)NCC3CCOCC3)c21 | – | inconclusive [inhibitor, single point]
Cc1cnc(SCc2ccccn2)nc1C1CCCN(C(=O)c2ccc(-c3ccccc3F)cc2)C1 (configuration not stated) | – | inconclusive [inhibitor, full curve]
COc1ccccc1CNc1ncnc2ccc(-c3ccc4c(c3)OCO4)cc12 | inactive: -17.6% | –

From PubChem BioAssay AID1645886 (National Center for Advancing Translational Sciences (NCATS), 2021)
